# The supplement of paper PMC8728848
# This is one part of the list.
# B1: F17bG (Escherichia coli), Q47200 (protein)
# chain: MTNFYKVFLAVFILVCCNISHAVVSFIGSTENDVGPSQGSYSSTHAMDNLPFVYNTGYNIGYQNANVWRIGGGFCVGLDGKVDLPVVGSLDGQSIYGLTEEVGLLIWMGDTNYSRGTAMSGNSWENVFSGWCVGNYLSTQGLSVHVRPVILKRNSSAQYSVQKTSIGSIRMRPYNGSSAGSVQTTVNFSLNPFTLNDTVTSCRLLTPSAVNVSLAAISAGQLPSSGDEVVAGTTSLKLQCDAGVTVWATLTDATTPSNRSDILTLTGASTATGVGLRIYKNTDSTPLKFGPDSPVKGNENQWQLSTGTETSPSVRLYVKYVNTGEGINPGTVNGISTFTFSYQ
# How the values were obtained:
# Assay in all cases: glycan array binding signal (z-score within array); higher = stronger binding
# Settings in all cases: glycan notation: IUPAC condensed, linker removed
# [1] = molecular target: GlcNAc(a1-3)Gal(b1-4)GlcNAc
# Method in brief: (§1)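 Arrays were curated from the Consortium for Functional Glycomics database, 3228 in total, and kept only where the protein sequence was available. Binding is expressed as a within-array Z-score. This score was averaged across arrays of the same protein sequence at different concentrations or buffers and across linkers, and negative values can be read as non-binding.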
# [2] = molecular target: GlcNAc(a1-6)Gal(b1-4)GlcNAc
# Method in brief: as §1
# [3] = molecular target: GlcNAc(b1-2)Gal(b1-3)GalNAc
# Method in brief: as §1
# [4] = molecular target: GlcNAc(b1-2)Man(a1-3)[GlcNAc(b1-2)Man(a1-6)]Man(b1-4)GlcNAc(b1-4)GlcNAc
# Method in brief: as §1
# GlcNAc(b1-3)Gal = molecular target: GlcNAc(b1-3)Gal
# Method in brief: as §1
# [5] = molecular target: GlcNAc(b1-3)Gal(b1-3)GalNAc
# Method in brief: as §1
# GlcNAc(b1-3)Gal(b1-4)Glc = molecular target: GlcNAc(b1-3)Gal(b1-4)Glc
# Method in brief: as §1
# [6] = molecular target: GlcNAc(b1-3)Gal(b1-4)GlcNAc
# Method in brief: as §1
# [7] = molecular target: GlcNAc(b1-3)Gal(b1-4)GlcNAc(b1-3)Gal(b1-4)GlcNAc
# Method in brief: as §1
# GlcNAc(b1-3)GalNAc = molecular target: GlcNAc(b1-3)GalNAc
# Method in brief: as §1
# [8] = molecular target: GlcNAc(b1-3)[GlcNAc(b1-6)]Gal(b1-4)GlcNAc
# Method in brief: as §1
# [9] = molecular target: GlcNAc(b1-3)[GlcNAc(b1-6)]GalNAc
# Method in brief: as §1
# [10] = molecular target: GlcNAc(b1-3)[GlcNAc(b1-6)]GlcNAc(b1-4)GlcNAc
# Method in brief: as §1
# [11] = molecular target: GlcNAc(b1-4)Gal(b1-4)GlcNAc
# Method in brief: as §1
# [12] = molecular target: GlcNAc(b1-4)GlcNAc(b1-4)GlcNAc
# Method in brief: as §1
# [13] = molecular target: GlcNAc(b1-4)GlcNAc(b1-4)GlcNAc(b1-4)GlcNAc(b1-4)GlcNAc
# Method in brief: as §1
# [14] = molecular target: GlcNAc(b1-4)GlcNAc(b1-4)GlcNAc(b1-4)GlcNAc(b1-4)GlcNAc(b1-4)GlcNAc
# Method in brief: as §1
# [15] = molecular target: GlcNAc(b1-4)[GlcNAc(b1-6)]GalNAc
# Method in brief: as §1
# [16] = molecular target: GlcNAc(b1-6)Gal(b1-4)GlcNAc
# Method in brief: as §1
# GlcNAc(b1-6)GalNAc = molecular target: GlcNAc(b1-6)GalNAc
# Method in brief: as §1
# Kdn(a2-3)Gal(b1-3)GlcNAc = molecular target: Kdn(a2-3)Gal(b1-3)GlcNAc
# Method in brief: as §1
# Kdn(a2-3)Gal(b1-4)GlcNAc = molecular target: Kdn(a2-3)Gal(b1-4)GlcNAc
# Method in brief: as §1
# [17] = molecular target: Man(a1-2)Man(a1-2)Man(a1-3)Man
# Method in brief: as §1
# [18] = molecular target: Man(a1-2)Man(a1-2)Man(a1-6)[Man(a1-3)]Man
# Method in brief: as §1
# Man(a1-2)Man(a1-3)Man = molecular target: Man(a1-2)Man(a1-3)Man
# Method in brief: as §1
# [19] = molecular target: Man(a1-2)Man(a1-3)[Man(a1-2)Man(a1-6)]Man
# Method in brief: as §1
# [20] = molecular target: Man(a1-2)Man(a1-3)[Man(a1-2)Man(a1-6)]Man(a1-6)[Man(a1-2)Man(a1-2)Man(a1-3)]Man(b1-4)GlcNAc(b1-4)GlcNAc
# Method in brief: as §1
# [21] = molecular target: Man(a1-2)Man(a1-3)[Man(a1-6)]Man(a1-6)[Man(a1-2)Man(a1-3)]Man(b1-4)GlcNAc(b1-4)GlcNAc
# Method in brief: as §1
# [22] = molecular target: Man(a1-2)Man(a1-6)[Man(a1-3)]Man(a1-6)[Man(a1-2)Man(a1-2)Man(a1-3)]Man(b1-4)GlcNAc(b1-4)GlcNAc
# Method in brief: as §1
# Man(a1-3)[Man(a1-6)]Man = molecular target: Man(a1-3)[Man(a1-6)]Man
# Method in brief: as §1
# [23] = molecular target: Man(a1-3)[Man(a1-6)]Man(a1-6)[Man(a1-2)Man(a1-3)]Man(b1-4)GlcNAc(b1-4)GlcNAc
# Method in brief: as §1
# [24] = molecular target: Man(a1-3)[Man(a1-6)]Man(a1-6)[Man(a1-3)]Man(b1-4)GlcNAc(b1-4)GlcNAc
# Method in brief: as §1
# [25] = molecular target: Man(a1-3)[Man(a1-6)]Man(b1-4)GlcNAc(b1-4)GlcNAc
# Method in brief: as §1
# Man(b1-4)GlcNAc = molecular target: Man(b1-4)GlcNAc
# Method in brief: as §1
# Neu5Ac(a2-3)Gal = molecular target: Neu5Ac(a2-3)Gal
# Method in brief: as §1
# [26] = molecular target: Neu5Ac(a2-3)Gal(b1-3)GalNAc
# Method in brief: as §1
# [27] = molecular target: Neu5Ac(a2-3)Gal(b1-3)GalNAc(b1-3)Gal(a1-4)Gal(b1-4)Glc
# Method in brief: as §1
binder,measurement,setting,value
B1,glycan array binding signal (z-score),[1],-0.642
same,glycan array binding signal (z-score),[2],-0.605
same,glycan array binding signal (z-score),[3],-0.48
same,glycan array binding signal (z-score),[4],0.335
same,glycan array binding signal (z-score),GlcNAc(b1-3)Gal,4.21
same,glycan array binding signal (z-score),[5],2.47
same,glycan array binding signal (z-score),GlcNAc(b1-3)Gal(b1-4)Glc,3.24
same,glycan array binding signal (z-score),[6],1.95
same,glycan array binding signal (z-score),[7],1.52
same,glycan array binding signal (z-score),GlcNAc(b1-3)GalNAc,3.86
same,glycan array binding signal (z-score),[8],5.83
same,glycan array binding signal (z-score),[9],2.94
same,glycan array binding signal (z-score),[10],1.09
same,glycan array binding signal (z-score),[11],3.19
same,glycan array binding signal (z-score),[12],0.085
same,glycan array binding signal (z-score),[13],-0.372
same,glycan array binding signal (z-score),[14],-0.447
same,glycan array binding signal (z-score),[15],3.18
same,glycan array binding signal (z-score),[16],0.854
same,glycan array binding signal (z-score),GlcNAc(b1-6)GalNAc,1.26
same,glycan array binding signal (z-score),Kdn(a2-3)Gal(b1-3)GlcNAc,-0.237
same,glycan array binding signal (z-score),Kdn(a2-3)Gal(b1-4)GlcNAc,-0.374
same,glycan array binding signal (z-score),[17],-0.414
same,glycan array binding signal (z-score),[18],-0.659
same,glycan array binding signal (z-score),Man(a1-2)Man(a1-3)Man,-0.573
same,glycan array binding signal (z-score),[19],-0.54
same,glycan array binding signal (z-score),[20],-0.585
same,glycan array binding signal (z-score),[21],-0.383
same,glycan array binding signal (z-score),[22],-0.296
same,glycan array binding signal (z-score),Man(a1-3)[Man(a1-6)]Man,0.592
same,glycan array binding signal (z-score),[23],-0.327
same,glycan array binding signal (z-score),[24],-0.326
same,glycan array binding signal (z-score),[25],-0.408
same,glycan array binding signal (z-score),Man(b1-4)GlcNAc,-0.566
same,glycan array binding signal (z-score),Neu5Ac(a2-3)Gal,0.212
same,glycan array binding signal (z-score),[26],-0.276
same,glycan array binding signal (z-score),[27],-0.335
